# Experimental data as given in PubChem BioAssay AID1460 (National Center for Advancing Translational Sciences (NCATS), 2008).
# Values joined by “and” are separate entries in the source; they are usually repeats but may differ in a detail not shown here. Equal values may be shown once. Among all 270,000 compounds or so, about 5,800 (2.1%) were called active. Inconclusive means that the source gave no clear call. Such entries were picked first, then a sample of the others. The call rests on the fitted dose curve; in most records, active means well fitted inhibition curve with a large enough effect; inconclusive means small, poorly fitted or top-dose-only effect; inactive means flat fitted curve, though single readings scatter. Potencies beside an inconclusive call are fits to weak or partial responses and may not hold up.
# Target: Microtubule-associated protein tau (Homo sapiens) (UniProt P10636)
# Sequence of UniProt P10636 (P10636 whole entry, looked up): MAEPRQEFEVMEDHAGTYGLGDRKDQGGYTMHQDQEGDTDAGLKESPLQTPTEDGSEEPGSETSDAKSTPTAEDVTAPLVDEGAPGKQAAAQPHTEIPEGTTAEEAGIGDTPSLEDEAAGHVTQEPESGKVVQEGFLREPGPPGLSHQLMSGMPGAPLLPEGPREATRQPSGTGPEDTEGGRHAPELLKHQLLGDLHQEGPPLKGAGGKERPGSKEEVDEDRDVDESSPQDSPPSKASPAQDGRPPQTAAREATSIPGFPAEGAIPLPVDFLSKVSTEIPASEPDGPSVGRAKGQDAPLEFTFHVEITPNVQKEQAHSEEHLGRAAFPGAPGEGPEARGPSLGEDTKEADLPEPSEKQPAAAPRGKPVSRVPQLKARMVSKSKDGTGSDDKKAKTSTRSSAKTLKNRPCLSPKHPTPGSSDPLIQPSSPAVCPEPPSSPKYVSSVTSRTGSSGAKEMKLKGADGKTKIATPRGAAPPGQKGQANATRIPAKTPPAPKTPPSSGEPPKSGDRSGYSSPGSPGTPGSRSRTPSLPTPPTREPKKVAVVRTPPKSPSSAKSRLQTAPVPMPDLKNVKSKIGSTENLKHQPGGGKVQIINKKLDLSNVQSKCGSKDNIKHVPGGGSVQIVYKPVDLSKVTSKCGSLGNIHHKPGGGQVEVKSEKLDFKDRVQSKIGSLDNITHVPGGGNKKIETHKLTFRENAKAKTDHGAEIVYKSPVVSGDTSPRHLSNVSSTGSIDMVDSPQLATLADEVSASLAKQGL
# Assay: qHTS for Inhibitors of Tau Fibril Formation, Thioflavin T Binding; further: nearly all actives have a fitted effect of over 55% in size
# Conditions: recombinant tau K18 P301L (four-repeat tau fragment), heparin-induced fibrillization, ThT fluorescence; series mostly up to 57.4 µM; activity, negative = inhibition: at the top concentration
# Procedure, shortened: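 Aggregation was driven by heparin (20 uM final) acting on recombinant tau […] bearing P301L in 100 mM sodium acetate pH 7; fibrils were detected with Thioflavin T.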
# On the % scale 0 is the no-effect control and ±100 the full control effect; potency means the concentration at half of the fitted maximal effect; tags describe the fitted curve by direction and shape.
SMILES,Potency,"activity, negative = inhibition"
Cc1ccc2c(C)nc(/N=C(\N)NC(=O)N3c4ccccc4Sc4ccccc43)nc2c1,"inconclusive: 3.98 µM [inhibitor, partial curve]",–
O=C(NC1CCCC1)c1ccc(Br)o1,–,inactive: -8.13%
Cc1nc(NC(=S)NC(=O)c2ccccc2)sc1C,–,inactive: -5.52%
Cc1ccc(Cl)cc1N(C)C(=O)c1sc2nc3n(c(=O)c2c1C)CCCC3,"inconclusive: 31.6 µM [inhibitor, single point]",–
Cc1cccc(C)c1NC(=O)CN1N=NC2C(=O)N(c3cccc(Cl)c3)C(=O)C21 (stereo not given),"inconclusive: 20 µM [inhibitor, single point]",–
O=C(COc1cccnc1[N+](=O)[O-])c1ccc(Cl)s1,active: 5.01 µM,–
COc1ccc(Nc2ncc(C(=O)Nc3cccc(OC)c3)c3ccccc23)cc1,"inconclusive: 12.6 µM [inhibitor, partial curve]",–
Cc1ccc(NC(=O)N/C=C/c2ccco2)c(C)c1,"inconclusive: 28.2 µM [inhibitor, partial curve]",–
O=C(CN1CCN(C2CCCCC2)CC1)Nc1ccccc1-c1ccccc1,"inconclusive: 39.8 µM [inhibitor, single point]",–
O=C(COC(=O)c1ccccc1O)Nc1ncc(Cl)cc1Cl,"inconclusive: 31.6 µM [inhibitor, single point]",–
COc1cc2c(cc1NC(=O)CSc1nc3ccc(C)cc3[nH]1)oc1ccccc12,–,inactive: 0.677%
CC(C)CNC(=S)NC(=O)c1csc([N+](=O)[O-])c1,"inconclusive: 15.8 µM [inhibitor, partial curve]",–
O=C(N/N=C\C=C\c1ccco1)c1cc(-c2ccc3ccccc3c2)n[nH]1,–,inactive: 6.71%
CCn1c(SCC(=O)c2ccc(OC)cc2)nnc1C(C)NC(=O)c1ccc(OC)cc1 (stereo not given),–,inactive: -10.9%
Cc1ccc(-c2ccc(CCC(=O)O)n2-c2ccc(C)c(Cl)c2)cc1,–,inactive: -19.3%
Cc1ccc(C(=O)Nc2cccc(C(F)(F)F)c2)cc1NC(=O)c1csc(-c2ccncc2)n1,–,inactive: -10.8%
O=C(O)C1C2C=CC(C3CC23)C1C(=O)N1CCc2ccccc21 (stereo not given),"inconclusive: 31.6 µM [inhibitor, single point]",–
O=S(=O)(N/N=C/c1ccc(Cl)cc1)c1ccc(Cc2ncc(C(F)(F)F)cc2Cl)s1,"inconclusive: 44.7 µM [inhibitor, single point]",–
CS/C(=C\[N+](=O)[O-])Nc1ccc(Cl)cc1,"inconclusive: 25.1 µM [inhibitor, partial curve]",–
CCOc1cc(/C=N/NC(=O)c2cccs2)cc([N+](=O)[O-])c1O,active: 10 µM,–
COc1cccc(N/C=C/C(=O)c2ccc(Cl)cc2)c1,"inconclusive: 4.47 µM [inhibitor, full curve]",–
Cc1[nH]c(=O)[nH]c(=O)c1NC(=O)c1sc2nc3c(C)cccc3cc2c1N,"inconclusive: 12.6 µM [inhibitor, partial curve]",–
CSc1ccc(CN(C)CC(=O)Nc2ccccc2Br)cc1,"inconclusive: 12.6 µM [inhibitor, partial curve]",–
Cc1ccc(C)c(NC(=O)Cn2c(=O)n(CCCS(=O)(=O)C3CCCCC3)c(=O)c3ccccc32)c1,"inconclusive: 3.16 µM [inhibitor, single point]",–

SMILES,Potency,"activity, negative = inhibition"
COc1ccc(Cl)cc1C(=O)NCC(c1ccc(N(C)C)cc1)N1CCCC1 (stereo not given),–,inactive: -3.7%
CN(Cc1cccnc1)Cc1c(C(=O)N2CCc3ccccc3C2)nc2ccc(Cl)cn12,–,inactive: -8.79%
O=C1N=C2N(CCN3CCCCC3)c3ccccc3N2/C1=C\c1ccc([N+](=O)[O-])o1,"inconclusive: 12.6 µM [inhibitor, partial curve]",–
Cc1ccc(-c2noc(N=O)c2NO)cc1,"inconclusive: 44.7 µM [inhibitor, single point]",–
CCc1ccc(CNC(=O)C2CCN(C(=O)c3ccc(-n4c(C)cc5ccccc54)s3)CC2)cc1,–,inactive: -8.32%
CCCCCCc1cc2cc(-c3nnc(-c4ccccc4OC)o3)c(=O)oc2cc1O,"inconclusive: 3.16 µM [inhibitor, full curve, poor fit]",–
CC1Cc2ccccc2N1C(=O)CSC1=NCCS1 (stereo not given),"inconclusive: 35.5 µM [inhibitor, single point]",–
CSc1c(C#N)sc(=S)n1-c1ccc(C)cc1,–,inactive: -0.568%
Clc1ccc(CN2CCN(c3ncnc4scc(-c5cccs5)c34)CC2)cc1,–,inactive: -24.4%
CN(C(=O)CSc1nc2ccc(NC(=O)c3cccs3)cc2s1)c1ccccc1,–,inactive: 8.26%
Cc1ccc(CCNC(=O)C2CCCN(c3nc4ccccc4o3)C2)cc1 (stereo not given),"inconclusive: 20 µM [inhibitor, partial curve]",–
COc1ccc2nc(Nc3ccc4c(c3)OCO4)sc2c1,"inconclusive: 5.62 µM [inhibitor, full curve]",–
CCOc1cc2c3c(c1)C1(Nc4ccccc4S1)C(=O)N3C(C)(C)CC2C (stereo not given),"inconclusive: 25.1 µM [inhibitor, partial curve]",–
S=c1[nH]c2cc3ccccc3cc2[nH]1,"inconclusive: 7.94 µM [inhibitor, partial curve]",–
O=C(/C=C\c1ccco1)Nc1ccc(N2CCN(C(=O)c3ccccc3)CC2)cc1,active: 11.2 µM,–
C/C(=N\NS(=O)(=O)c1ccc(Cl)c([N+](=O)[O-])c1)c1ccc(C)o1,"inconclusive: 28.2 µM [inhibitor, partial curve]",–
CCOc1cc(C(=O)Nc2ccc(-c3nnc4n3CCCCC4)cc2)cc(OCC)c1OCC,–,inactive: 2.53%
C/C(=N\N1CCN(c2ccc(Cl)cc2)CC1)c1ccco1,"inconclusive: 17.8 µM [inhibitor, partial curve]",–
Cc1c(NC(=S)N/N=C/C=C/c2ccc([N+](=O)[O-])cc2)c(=O)n(-c2ccccc2)n1C,"inconclusive: 11.2 µM [inhibitor, partial curve]",–
CCN(CC)S(=O)(=O)c1ccc2c(c1)c(=O)c(C(=O)N1CCN(c3ccccc3OC)CC1)cn2C,–,inactive: -6.46%
CN(C)c1ccc(-c2nc(N(C)Cc3ccco3)c3ccccc3n2)cc1,"inconclusive: 8.91 µM [inhibitor, partial curve]",–
CCOC(=O)C1=C(C)N=C2c3ccccc3C(=O)C2C1c1ccccc1 (stereo not given),"inconclusive: 1.78 µM [inhibitor, full curve]",–
Nc1nnc(-c2ccco2)s1,–,inactive: -6.38%
Cc1c(C(=O)Oc2ccc(Br)cc2)sc2ncn(Cc3ccccc3F)c(=O)c12,–,inactive: -4.81%

SMILES,Potency,"activity, negative = inhibition"
O=C(N/N=C/c1cccc(OCc2ccccc2)c1)c1cccs1,"inconclusive: 2 µM [inhibitor, full curve, poor fit]",–
Cc1ccc(S(=O)(=O)NCCSCc2ccccc2)cc1,"inconclusive: 14.1 µM [inhibitor, partial curve]",–
CC(C)Oc1ccccc1/C=N/Nc1ccccc1[N+](=O)[O-],"inconclusive: 7.94 µM [inhibitor, partial curve]",–
O=C(O)c1ccc(Sc2nnc(-c3cccc(Br)c3)o2)c([N+](=O)[O-])c1,"inconclusive: 17.8 µM [inhibitor, partial curve]",–
CC1=C(/C=C/C(C)=C/C=C/C(C)=C/C=C/C=C(C)/C=C/C=C(C)/C=C/C2=C(C)C(=O)C(O)CC2(C)C)C(C)(C)CC(O)C1=O (stereo not given),"inconclusive: 10 µM [inhibitor, partial curve]",–
CC(Sc1ncnc2sccc12)C(=O)Nc1ccc(C(N)=O)cc1 (stereo not given),–,inactive: -8.69%
CCc1ccc2nc(N3CCC(C(=O)NCCC(C)C)CC3)sc2c1,"inconclusive: 7.94 µM [inhibitor, partial curve]",–
CCCCNC(=O)c1cnc2c(-c3ccc(OCC)c(OCC)c3)c(C)nn2c1-c1ccccc1,–,inactive: -12.7%
C#CCn1c(-c2ccccc2)ccc(C#N)c1=O,–,inactive: 9.06%
CCCC(=O)N1CCN(c2ccc(NC(=O)c3ccc([N+](=O)[O-])o3)cc2Cl)CC1,active: 12.6 µM,–
COc1ccc(/C=N/NC(=O)C(=O)Nc2ccccn2)cc1OC,"inconclusive: 12.6 µM [inhibitor, partial curve]",–
CCCC(=O)OC1=C(C(C)=O)N(Cc2ccccc2)S(=O)(=O)c2ccccc21,"inconclusive: 20 µM [inhibitor, single point]",–
Cc1cc(S(=O)(=O)NCCc2csc(-c3cccc(F)c3)n2)ccc1F,"inconclusive: 39.8 µM [inhibitor, single point]",–
Cc1nc2ccc(NC(=O)c3ccc([N+](=O)[O-])cc3[N+](=O)[O-])cc2s1,"inconclusive: 14.1 µM [inhibitor, partial curve]",–
COc1cccc2cc(-c3nc4ccc(C)cc4[nH]3)c(=O)oc12,"inconclusive: 3.55 µM [inhibitor, partial curve]",–
COC(=O)CCCCCN1C(=O)NC(c2ccccc2)C(C(=O)OCc2ccccc2)=C1C (stereo not given),"inconclusive: 11.2 µM [inhibitor, partial curve] and inconclusive: 20 µM [inhibitor, single point]",–
O=C(Cc1ccc(S(=O)(=O)N2CCOCC2)s1)Nc1nc2c(s1)CCCC2,"inconclusive: 28.2 µM [inhibitor, single point]",–
O=C1CCSC2(C(=O)N(Cc3ccccc3)c3ccccc32)N1c1ccccc1 (stereo not given),"inconclusive: 31.6 µM [inhibitor, single point]",–
CSCCC(NS(=O)(=O)c1c(Cl)cccc1Cl)C(=O)O (stereo not given),–,inactive: -6.32%
COCCNC(=S)Nc1ccc2nsnc2c1,–,inactive: -11.9%
Cc1ccc(SCC2=NNC(=O)C2)cc1,"inconclusive: 1.58 µM [inhibitor, full curve]",–
Cc1cc(C(=O)N/N=C/c2ccc(N(C)C)cc2)c2ccccc2n1,"inconclusive: 7.94 µM [inhibitor, full curve]",–
